Source: the supplement of paper PMC4166925
± gives the standard deviation of the averaged measurements. Over roughly 33,000 sequences, “E-score (dimensionless, -0.5 to 0.5)” has its median near -0.046; the highest 2% begin near 0.36. The list shows a part of the results.

tested on: T1, SpTbr T-box DNA-binding domain (GST fusion); experiment: PBM E-score of 8-mer (E-score (dimensionless, -0.5 to 0.5)); Tbr is Tbrain of the sea star Patiria miniata (Pm) or the sea urchin Strongylocentrotus purpuratus (Sp); higher = stronger binding preference; most listed sequences are background and not binding sites; conditions: the construct has about 5 more residues each side
T1 sequence: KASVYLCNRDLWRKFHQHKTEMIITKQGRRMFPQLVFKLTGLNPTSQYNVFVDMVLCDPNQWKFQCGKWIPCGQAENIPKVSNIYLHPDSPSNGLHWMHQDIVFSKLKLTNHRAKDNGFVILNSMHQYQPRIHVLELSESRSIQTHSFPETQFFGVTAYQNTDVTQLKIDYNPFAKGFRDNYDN
How it was run: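 Each ungapped 8-mer received an enrichment E-score from the Universal PBM Analysis Suite, averaged over duplicate arrays. The proteins were Tbr T-box DNA-binding domains, covering the whole T-box plus about five flanking residues, fused to GST and expressed in BL21 E. coli at 20 °C before glutathione affinity purification. Universal Agilent oligonucleotide arrays were made double-stranded by primer extension and incubated with 200 nM protein in PBS (pH 7.5). The arrays were then scanned and quantified, and every 8-mer was scored from probe intensities.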

Sequence | PBM E-score of 8-mer
CGACTACC | -0.0334 ± 0.062
ATGCGACC | 0.0792 ± 0.023
GCATCCAA | -0.252 ± 0.048
CTTGTTAC | 0.203 ± 0.006
ATGGTTAA | -0.161 ± 0.044
AAGGCCTT | -0.277 ± 0.097
ATCCTAGA | -0.254 ± 0.05
AGGGTACG | -0.0187 ± 0.047
ACAGTAGA | -0.0367 ± 0.079
CAGTAGGG | -0.121 ± 0.0042
ATAGTCGG | -0.131 ± 0.025
GGCGCGGA | 0.193 ± 0.069
ACGTCCCC | -0.0424 ± 0.052
AGTGTGAC | 0.445 ± 0.011
CAGTGCGA | 0.386 ± 0.0039
CCGAAGCC | -0.24 ± 0.018
AGCTGATG | -0.127 ± 0.019
CCGGACTC | -0.225 ± 0.025
CAGTACAG | -0.111 ± 0.043
AATCCCCT | -0.167 ± 0.065
AATTAGTC | -0.181 ± 0.033
GCCCAACA | 0.0923 ± 0.037
CAGGCTTC | -0.0859 ± 0.019
ACTGGTCA | -0.134 ± 0.026
GATTATAA | -0.145 ± 0.04

Sequence | PBM E-score of 8-mer
AGCGGTAC | 0.0745 ± 0.046
AAAGGATA | -0.165 ± 0.0067
ATTGAGAG | -0.119 ± 0.047
AAGGGCAT | 0.0223 ± 0.028
AGTCCGAT | -0.149 ± 0.061
AATCACAA | 0.212 ± 0.018
GTCTCAAC | -0.0155 ± 0.044
CGGCTCAC | 0.0994 ± 0.041
CCGGGGAA | -0.282 ± 0.02
CGCGAGCC | 0.15 ± 0.081
AATGGAAA | -0.271 ± 0.031
GCAGAGAA | -0.328 ± 0.0058
GCCGGTCC | -0.235 ± 0.075
AGGCTTCC | -0.213 ± 0.078
CCCGTGAA | 0.212 ± 0.014
TTGGTAAA | -0.22 ± 0.0026
GAATCGCC | 0.0803 ± 0.041
CGGATGTA | -0.17 ± 0.018
AGGAGGCA | -0.182 ± 0.054
GTAGAAAA | -0.0889 ± 0.057
TGATCTAA | -0.12 ± 0.1
AGCCGATA | -0.0865 ± 0.011
GGTCTGAA | -0.234 ± 0.021
CTTGACTC | -0.225 ± 0.016
GCTGTGGA | 0.151 ± 0.058

Sequence | PBM E-score of 8-mer
ACAGACGG | 0.134 ± 0.036
AAATGGCC | -0.263 ± 0.029
ACTTACGG | -0.122 ± 0.027
ATGAGGCC | -0.252 ± 0.034
CAAAGGGA | -0.259 ± 0.0031
TGCGTTAA | 0.208 ± 0.026
ACGGCGGA | -0.211 ± 0.039
AGTACCAA | -0.141 ± 0.0034
CCGGGCCC | -0.0921 ± 0.12
AGCACGTC | 0.167 ± 0.0033
CACGGTTA | -0.0116 ± 0.056
CCATAGAA | -0.0852 ± 0.036
CAAATTCC | 0.00189 ± 0.041
AACATCAC | 0.208 ± 0.023
GGAATCGA | -0.00645 ± 0.086
GTATCACA | 0.213 ± 0.0034
TTACAGAA | -0.0978 ± 0.033
ATACACAC | 0.2321 ± 0.00076
AGTCGTGG | 0.0665 ± 0.034
GAACAAAC | -0.0729 ± 0.0068
ACAGTATG | 0.1665 ± 0.00065
AGTCCACA | 0.233 ± 0.043
CACTTCCA | 0.284 ± 0.0076
AGCGCCTC | 0.268 ± 0.0083
CGGGTTCA | 0.0792 ± 0.0091

Sequence | PBM E-score of 8-mer
CATATAAC | -0.109 ± 0.055
ACCCCACT | 0.0175 ± 0.038
AAATGTAT | -0.147 ± 0.011
GGTCTTCA | 0.0227 ± 0.057
CAAGCCGA | -0.136 ± 0.019
AACATTAT | -0.103 ± 0.058
CAGATGTA | -0.0627 ± 0.057
AAGCACAG | -0.157 ± 0.05
AAAGCAAC | 0.0509 ± 0.06
AACAGTCG | 0.142 ± 0.021
GGGGATAA | -0.174 ± 0.0073
CCCTTCGC | 0.157 ± 0.033
ACTCCGGG | -0.0806 ± 0.049
TCTAGCCA | -0.0859 ± 0.0019
GCCAAGTA | -0.0662 ± 0.052
CGCTACTA | 0.0971 ± 0.009
ACATTGCG | 0.028 ± 0.072
AACACCCA | 0.293 ± 0.035
GCGCTGTA | 0.206 ± 0.014
GCACGAAA | -0.0282 ± 0.018
ATTCGTGA | 0.2108 ± 0.0015
GAGTGCCA | 0.20475 ± 0.00018
ATAGAGAT | -0.108 ± 0.066
GCAGCCGA | -0.0632 ± 0.019
ATCATATC | -0.086 ± 0.0052

Sequence | PBM E-score of 8-mer
GACAATGA | 0.176 ± 0.0013
ATCAACGA | 0.051 ± 0.018
CAGGACAC | 0.191 ± 0.037
TATAATCA | -0.107 ± 0.065
AACAACCG | -0.0688 ± 0.056
AAATATAT | -0.192 ± 0.054
TGCTGACA | 0.231 ± 0.023
CGCAAAAA | 0.15 ± 0.012
CAAGAATC | -0.115 ± 0.11
CCCTGCGG | -0.189 ± 0.04
AACACTCT | 0.355 ± 0.011
ACAATGTC | 0.0343 ± 0.011
AAAAGTGG | 0.118 ± 0.11
CCAAATGC | -0.107 ± 0.051
AGTACTAT | -0.142 ± 0.062
ATTACTCA | 0.109 ± 0.043
ACTATGCC | -0.0459 ± 0.048
TCGGGTCA | 0.00268 ± 0.096
CGCTATAA | 0.0809 ± 0.056
ATCCGCCG | -0.126 ± 0.097
AGTTGTTA | 0.369 ± 0.04
AAGCGTGT | 0.288 ± 0.012
AGCCAGTG | -0.21 ± 0.011
AGGAGCAT | -0.105 ± 0.046
AGTTAACC | -0.158 ± 0.0076

Sequence | PBM E-score of 8-mer
CGAGACGC | -0.103 ± 0.1
AATACATT | -0.143 ± 0.02
CGCATAGA | -0.0202 ± 0.12
AAACGCTT | -0.0215 ± 0.0094
TCTTAACA | 0.214 ± 0.041
CACTTGAA | 0.0803 ± 0.017
CCCGATGA | -0.0376 ± 0.018
TATGGCGA | 0.0259 ± 0.038
ATAGAGAA | -0.203 ± 0.013
CAGTCAAA | -0.0968 ± 0.02
ACAGGCAC | 0.0398 ± 0.048
CGTGACTA | 0.0881 ± 0.032
CTAATCGA | -0.213 ± 0.025
AATACCGA | -0.119 ± 0.011
ACTCTGAA | -0.183 ± 0.0055
AGATAAGA | -0.137 ± 0.015
CTTACAGA | 0.0336 ± 0.094
AGCGCAGC | -0.0867 ± 0.019
CAATGCAG | -0.25 ± 0.013
GGCGTTAC | 0.326 ± 0.018
ACCTTAGG | -0.0722 ± 0.023
ACGTAGGC | -0.0247 ± 0.067
AGATACCG | -0.142 ± 0.046
CTTACATA | -0.196 ± 0.042
CAATCGTC | 0.0322 ± 0.0016

Sequence | PBM E-score of 8-mer
ACGAAGGG | -0.227 ± 0.07
CCGTCACA | 0.306 ± 0.039
TACTTTCA | 0.0949 ± 0.061
AACCTATC | -0.225 ± 0.0065
AAAGCTCT | -0.125 ± 0.048
CTTGGCTC | -0.22 ± 0.061
AGCGGAGG | -0.17 ± 0.0084
CCCCCTTA | -0.299 ± 0.056
AGCTTGAC | -0.237 ± 0.03
GAATCACA | 0.259 ± 0.0088
CCCTACTC | -0.0057 ± 0.027
AATCTACA | -0.0319 ± 0.069
AGTGACAC | 0.435 ± 0.0092
CAGACGAG | -0.296 ± 0.057
CGCTTAAC | 0.0996 ± 0.0031
CCGTATCG | 0.0597 ± 0.01
CCGCGCAG | 0.0561 ± 0.029
GGGCCACA | 0.121 ± 0.046
CCGTCGTC | 0.0752 ± 0.061
ATTCGCGC | 0.387 ± 0.012
GACCGATC | -0.0366 ± 0.053
ATTGAATG | -0.229 ± 0.048
